Reference: the supplement of paper PMC4604168 (melanoma cell lines)
This is one part of the list. Single values are uncertain, as repeats are few or missing.

Experiments:
Experiment in all cases: cell count relative to DMSO control; melanoma cells; higher = more viable cells
Conditions in all cases: library dose: low library concentration; 72 h
COLO792 = tested on: COLO792
COLO800 = tested on: COLO800
COLO829 = tested on: COLO829
G361 = tested on: G361
IPC-298 = tested on: IPC-298
IST-MEL1 = tested on: IST-MEL1
LOXIMVI = tested on: LOXIMVI
MEL-HO = tested on: MEL-HO
LB2518-MEL = tested on: LB2518-MEL
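Note: cell number obtained by counting DAPI-stained nuclei in high-throughput microscope images with image analysis software, screen run in 1,536-well plates.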

SMILES	cell count (COLO792)	cell count (COLO800)	cell count (COLO829)	cell count (G361)	cell count (IPC-298)	cell count (IST-MEL1)	cell count (LOXIMVI)	cell count (MEL-HO)	cell count (LB2518-MEL)
CC1(C)CCC(c2ccc(Cl)cc2)=C(CN2CCN(c3ccc(C(=O)NS(=O)(=O)c4ccc(N[C@H](CCN5CCOCC5)CSc5ccccc5)c(S(=O)(=O)C(F)(F)F)c4)cc3)CC2)C1 + O=C(Nc1cccc(Cl)c1)Nc1ncc(CCNc2ncnc3ccsc23)s1 [SNS314] (first compound 0.4 µM, partner dose 0.0008 µM)	63.3%	59.3%	95.7%	85.3%	104%	72.5%	45%	84.8%	
Cc1ccc(Nc2nccc(N(C)c3ccc4c(C)n(C)nc4c3)n2)cc1S(N)(=O)=O [Pazopanib] + Cc1ccc(NC(=O)c2cccc(N(C)C)c2)cc1NC(=O)c1ccc(O)cc1 [ZM336372] (first compound 0.4 µM, partner dose 2 µM)	114%	99.3%	110%	109%	78.3%	99.4%	67.4%	99.6%	93%
Cc1ccc(Nc2nccc(N(C)c3ccc4c(C)n(C)nc4c3)n2)cc1S(N)(=O)=O [Pazopanib] + CC(C)CCN1c2nc(Nc3cc(F)c(O)c(F)c3)ncc2N(C)C(=O)C1C [BID1870] (first compound 0.4 µM, partner dose 0.2 µM)	89.6%	115%	99.4%	85.2%	84%	97.4%	91.5%	92%	
O=C(/C=C/c1cccnc1)NCCCCC1CCN(C(=O)c2ccccc2)CC1 + Cn1cc(/C=C2\C(=O)Nc3cccnc32)c2ccccc21 [GW441756] (first compound 0.01 µM, partner dose 0.4 µM)	50%	30.9%	70%	9.39%	42.5%	91%	106%	56.9%	82.7%
CC1(C)CCC(c2ccc(Cl)cc2)=C(CN2CCN(c3ccc(C(=O)NS(=O)(=O)c4ccc(N[C@H](CCN5CCOCC5)CSc5ccccc5)c(S(=O)(=O)C(F)(F)F)c4)cc3)CC2)C1 + CC(C)(C)c1cnc(CSc2cnc(NC(=O)C3CCNCC3)s2)o1 [SNS-032] (first compound 0.4 µM, partner dose 0.01 µM)	56.7%	61.5%	99.6%	82.6%	102%	72.8%	61.9%	91.4%	71.4%
Cc1ccc(Nc2nccc(N(C)c3ccc4c(C)n(C)nc4c3)n2)cc1S(N)(=O)=O [Pazopanib] + O=C(CCCCCCC(=O)Nc1ccccc1)NO [vorinostat] (first compound 0.4 µM, partner dose 0.08 µM)	103%	81.8%	83.1%	88.8%	84%	98.9%	91.8%	118%	121%
CC1(C)CCC(c2ccc(Cl)cc2)=C(CN2CCN(c3ccc(C(=O)NS(=O)(=O)c4ccc(N[C@H](CCN5CCOCC5)CSc5ccccc5)c(S(=O)(=O)C(F)(F)F)c4)cc3)CC2)C1 + NC(=O)Nc1cc(-c2cccc(F)c2)sc1C(=O)N[C@H]1CCCNC1 [AZD7762] (first compound 0.4 µM, partner dose 0.02 µM)	64.6%	70%	89.7%	87%	100%	84.9%	68.4%	83.6%	101%
Cc1ccc(Nc2nccc(N(C)c3ccc4c(C)n(C)nc4c3)n2)cc1S(N)(=O)=O [Pazopanib] + COc1ccc(COc2ccc(Cc3cnc(N)nc3N)cc2OC)cc1 [GW2580] (first compound 0.4 µM, partner dose 1 µM)	104%	91.1%	97.6%	82.9%	76.4%	98.7%	104%	106%	112%
Cc1ccc(Nc2nccc(N(C)c3ccc4c(C)n(C)nc4c3)n2)cc1S(N)(=O)=O [Pazopanib] + O=C(Nc1ccccc1)c1cc([N+](=O)[O-])ccc1Cl [GW9662] (first compound 0.4 µM, partner dose 2 µM)	101%	156%	68.2%	100%	78%	98.8%	81.4%	104%	105%
Cc1ccc(Nc2nccc(N(C)c3ccc4c(C)n(C)nc4c3)n2)cc1S(N)(=O)=O [Pazopanib] + CC1(C)NC(=O)N(c2ccc([N+](=O)[O-])c(C(F)(F)F)c2)C1=O [nilutamide] (first compound 0.4 µM, partner dose 1 µM)	88.6%	103%	83.1%	97%	95.9%	101%	63.5%	98.5%	107%
O=C(/C=C/c1cccnc1)NCCCCC1CCN(C(=O)c2ccccc2)CC1 + O=C(O)C(=O)Nc1sc2c(c1C(=O)O)CCNC2 [TCS401] (first compound 0.01 µM, partner dose 1.66667 µM)	65.5%	40.6%	71.4%	19.6%	45.9%	78.9%	105%	56.2%	101%
CC1(C)CCC(c2ccc(Cl)cc2)=C(CN2CCN(c3ccc(C(=O)NS(=O)(=O)c4ccc(N[C@H](CCN5CCOCC5)CSc5ccccc5)c(S(=O)(=O)C(F)(F)F)c4)cc3)CC2)C1 + NCC(=O)Nc1ccc(-n2nc(C(F)(F)F)cc2-c2ccc3c(ccc4ccccc43)c2)cc1 [OSU03012] (first compound 0.4 µM, partner dose 1 µM)	51.8%	38%	78.4%	95.3%	68.3%	63.8%	59.6%	63.7%	85.9%
Cc1ccc(Nc2nccc(N(C)c3ccc4c(C)n(C)nc4c3)n2)cc1S(N)(=O)=O [Pazopanib] + O=C(O)c1ccc(-c2c[nH]c3ncc(-c4ccccc4)cc23)cc1C1CCCC1 [GSK650394] (first compound 0.4 µM, partner dose 0.16 µM)	108%	108%	93.6%	104%	80%	88.1%	99.9%	100%	
Cc1ccc(Nc2nccc(N(C)c3ccc4c(C)n(C)nc4c3)n2)cc1S(N)(=O)=O [Pazopanib] + C=CCn1c(=O)c2cnc(Nc3ccc(N4CCN(C)CC4)cc3)nc2n1-c1cccc(C(C)(C)O)n1 [MK1775] (first compound 0.4 µM, partner dose 0.02 µM)	91.8%	109%	112%	82.2%	75.4%	108%	95.4%	102%	
CC1(C)CCC(c2ccc(Cl)cc2)=C(CN2CCN(c3ccc(C(=O)NS(=O)(=O)c4ccc(N[C@H](CCN5CCOCC5)CSc5ccccc5)c(S(=O)(=O)C(F)(F)F)c4)cc3)CC2)C1 + COc1ccc(-c2ccc3c(N4CCOCC4)nc(N4C[C@@H](C)O[C@@H](C)C4)nc3n2)cc1CO [KU0063794] (first compound 0.4 µM, partner dose 0.02 µM)	48.8%	71.1%	92.4%	87.1%	91.8%	78%	36.2%	76.3%	79%
O=C(/C=C/c1cccnc1)NCCCCC1CCN(C(=O)c2ccccc2)CC1 + COC(=O)c1sccc1S(=O)(=O)Nc1ccc(Nc2ccccc2)cc1OC [GSK0660] (first compound 0.01 µM, partner dose 1 µM)	50.3%	34.1%	71.4%	9.58%	35%	66.1%	76.6%	72%	94.1%
CC1(C)CCC(c2ccc(Cl)cc2)=C(CN2CCN(c3ccc(C(=O)NS(=O)(=O)c4ccc(N[C@H](CCN5CCOCC5)CSc5ccccc5)c(S(=O)(=O)C(F)(F)F)c4)cc3)CC2)C1 + CO[C@@H]1[C@H](N(C)C(=O)c2ccccc2)C[C@H]2O[C@]1(C)n1c3ccccc3c3c4c(c5c6ccccc6n2c5c31)C(=O)NC4 [Midostaurin] (first compound 0.4 µM, partner dose 0.08 µM)	42%	50.9%	101%	69.3%	94.9%	65.6%	34.6%	72.5%	81.7%
